According to the supplement of paper PMC11166567:
The other results are listed elsewhere or left out.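 The calls were made as follows: active = permutation test q below 0.05 after Benjamini-Hochberg correction; inactive = q of 0.05 or more.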

system: U2OS; assay: mean average precision of replicate retrieval against DMSO controls (Cell Painting phenotypic activity) (fraction (0-1)); higher = stronger, more reproducible morphological phenotype distinct from DMSO; extreme values may be limits of the assay; settings: 24 h; 5 µM
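Also: cosine similarity of well-level aggregated Cell Painting profiles ranks each compound's replicate wells against DMSO wells, four replicate plates, significance from 100,000 rank shuffles.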

SMILES | mean average precision
O=C1C(SCCO)=C(SCCO)C(=O)c2ccccc21 | active: 1
Nc1ccn([C@H]2C[C@H](O)[C@@H](CO)O2)c(=O)n1 | inactive: 0.12
CCC(c1ccc(O)cc1)C(CC)c1ccc(O)cc1 (centres undefined) | active: 0.861
CC(C)(N)C(=O)N[C@H](COCc1ccccc1)C(=O)N1CCC2(CC1)CN(S(C)(=O)=O)c1ccccc12 | active: 0.931
CN1CCc2nc(C(=O)N[C@H]3C[C@H](C(=O)N(C)C)CC[C@@H]3NC(=O)C(=O)Nc3ccc(Cl)cn3)sc2C1 | active: 0.336
CCOC(=O)[C@H](C)C[C@@H](Cc1ccc(-c2ccccc2)cc1)NC(=O)CCC(=O)O | inactive: 0.183
CCOc1ccccc1N=Nc1c(C)[nH]n(-c2nc(-c3ccccc3)cs2)c1=O | inactive: 0.218
COC(=O)C[C@](O)(CCCC(C)(C)O)C(=O)O[C@@H]1C(OC)=C[C@]23CCCN2CCc2cc4c(cc2[C@H]13)OCO4 | active: 1
N#CC1(c2ccc(NC(=O)c3cccnc3NCc3ccncc3)cc2)CCCC1 | active: 0.622
OCc1ccc(-c2nn(Cc3ccccc3)c3ccccc23)o1 | active: 1
CO[C@@H](C(=O)N1Cc2[nH]nc(NC(=O)c3ccc(N4CCN(C)CC4)cc3)c2C1)c1ccccc1 | active: 0.778
Cc1nc(Nc2n[nH]c3c2CN(C(=O)N[C@H](CN(C)C)c2ccccc2)C3(C)C)c2sccc2n1 | active: 0.415
Cc1nc2n(c(=O)c1CCN1CCC(c3noc4cc(F)ccc34)CC1)CCCC2O (centres undefined) | inactive: 0.255
Nc1ncnc2c1c(-c1cnc3[nH]ccc3c1)nn2C1CCCC1 | active: 1
